Assay results as given in paper PMC6919601, “Identification of Plasmodium dipeptidyl aminopeptidase allosteric inhibitors by high throughput screening” (PLoS ONE, 2019).
Among all 110,000 compounds or so, about 230 (0.21%) showed an effect of 50% or more. This is one part of the list.

These compounds were tested against DPAP1 (Plasmodium falciparum, UniProt Q8IIJ9) (assay: primary screen, percent inhibition; read by cleavage of a fluorogenic dipeptide substrate; higher = more effect of the substance).
Design: species or system P. falciparum D10 trophozoite lysates; single well
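Also: 30 min substrate incubation versus DMSO and 10 µM JCP410 controls.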

Sequence of DPAP1 (Q8IIJ9 whole entry, looked up): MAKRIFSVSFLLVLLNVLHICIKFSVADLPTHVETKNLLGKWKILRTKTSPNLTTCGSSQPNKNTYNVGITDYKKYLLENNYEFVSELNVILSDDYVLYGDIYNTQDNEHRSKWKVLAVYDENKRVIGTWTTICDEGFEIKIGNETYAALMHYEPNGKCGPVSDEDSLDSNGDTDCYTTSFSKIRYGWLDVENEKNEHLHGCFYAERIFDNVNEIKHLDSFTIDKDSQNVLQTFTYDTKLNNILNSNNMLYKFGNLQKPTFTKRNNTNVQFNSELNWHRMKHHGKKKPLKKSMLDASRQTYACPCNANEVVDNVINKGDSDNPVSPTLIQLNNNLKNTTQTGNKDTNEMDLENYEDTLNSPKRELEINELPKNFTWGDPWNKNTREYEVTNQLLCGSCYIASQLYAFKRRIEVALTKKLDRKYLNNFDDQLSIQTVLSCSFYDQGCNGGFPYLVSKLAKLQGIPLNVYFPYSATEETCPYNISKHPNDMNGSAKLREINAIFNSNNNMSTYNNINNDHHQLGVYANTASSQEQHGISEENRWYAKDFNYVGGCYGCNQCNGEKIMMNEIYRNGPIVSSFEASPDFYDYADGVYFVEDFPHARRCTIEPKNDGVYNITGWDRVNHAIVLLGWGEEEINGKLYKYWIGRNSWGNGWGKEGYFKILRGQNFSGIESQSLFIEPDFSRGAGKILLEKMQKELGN

| Compound | % Inhibition @ 10 uM [%] |
| --- | --- |
| CC(=O)Nc1ccc(S(=O)(=O)N2CCN(S(=O)(=O)c3ccc(C)cc3)CC2)cc1 | 6.17 |
| CCOC(=O)N1CCN(C(=O)C2=CCN(S(=O)(=O)c3ccc(Br)cc3)CC2)CC1 | 5.09 |
| OC(COCCC12CC3CC(CC(C3)C1)C2)CN1CCOCC1 (stereo not drawn) | -0.239 |
| O=[N+]([O-])c1ccc2nc(O)c(/C=C(\O)c3ccc(F)cc3)nc2c1 | -5.44 |
| COCc1noc2c1C(c1ccc(F)cc1)C(C#N)=C(N)N2 (stereo not drawn) | -2.16 |
| CCS(=O)(=O)c1oc(-c2cccs2)nc1S(=O)(=O)c1ccccc1 | 5.29 |
| C=CCn1c(SCc2cccc(C)c2)nc2c1c(=O)n(C)c(=O)n2C | 2.46 |
| COc1cccc(C(=O)c2cc3ccc(OC)cc3o2)c1 | -1.64 |
| Cc1oc2ccc(O)c(CN3CCN(C)CC3)c2c1C(=O)OCC(C)C | -6.72 |
| O=C(NCCc1ccccc1)c1nc2ncccn2n1 | -5.41 |
| O=C(Cn1cc(C(=O)c2ccco2)c2ccccc21)NCCc1c[nH]c2ccccc12 | -1.72 |
| OCCCc1nc2ccccc2n1Cc1c(F)cccc1Cl | -8.08 |
| COc1cc(NC(=O)c2ccc([N+](=O)[O-])cc2)cc(OC)c1 | 3.34 |
| Nn1cnn2c(SCC(=O)Nc3cccnc3Cl)nnc12 | -8.17 |
| Cc1nc2ccccc2n1S(=O)(=O)c1cc(Cl)ccc1Cl | -2.34 |
| COc1ccc(C2(CNC(=O)C(=O)NC3CCCCC3)CCCC2)cc1OC | -1.71 |
| FC(F)(F)c1ccccc1CNc1ccc2[nH]ncc2c1 | 0.217 |
| CCOC(=O)C1=C(C)N=c2s/c(=C/c3cc(C)n(C)c3C)c(=O)n2C1c1cc(OC)ccc1OC (stereo not drawn) | -1.25 |
| COc1ccc(CCNC(=O)C2CC2)cc1OC | 8.01 |
| C=C(C)Cn1c(=S)[nH]c2sc3c(c2c1=O)CCCC3 | 57.3 |
| CC(=O)N1CCC2(CC1)OC(=O)C(C)=C2C(=O)NCc1cccs1 | -2.13 |
| COc1ccc(C)cc1NC(=O)CN(c1cccc(C(F)(F)F)c1)S(C)(=O)=O | -7.09 |
| COc1ccc(-c2noc(-c3ccco3)n2)cc1 | -2.99 |
| CC1=C(c2ccccc2)C(c2ccccc2)CC1=O (stereo not drawn) | -2.8 |
| CCOC(=O)C1=C(C)N=C(C)/C(=C(/O)OCC)C1/C=C/c1ccccc1 (stereo not drawn) | -4.32 |
| Cc1cc(O)nc2c3ccccc3nn12 | -5.37 |

| Compound | % Inhibition @ 10 uM [%] |
| --- | --- |
| O=C(CCc1ccccc1)C1(O)CCCCC1 | 1.42 |
| c1ccc(-c2nnc3sc(-c4cc5ccccc5o4)nn23)cc1 | -1.69 |
| Cc1cccn2c(=O)c3cc(C(=O)NCCN4CCOCC4)c(=N)n(CCOCCO)c3nc12 | -1.47 |
| COc1ccc(C2C(=O)N(C3CCCCC3)CC(=O)N2C2CCCc3ccccc32)cc1 (stereo not drawn) | -0.519 |
| CCOC(=O)c1cnc(SCC(=O)N2CCCC2)nc1N | 0.558 |
| COc1ccc(C2C(C#N)=C(N)Oc3[nH]nc(-c4ccc(Cl)cc4)c32)cc1O (stereo not drawn) | -2.78 |
| COc1nc(N)c(C#N)c(-c2cccnc2)c1C#N | -4.61 |
| Cc1ccc(-c2csc(/C(C#N)=C/c3ccc(Cl)cc3Cl)n2)cc1 | -4.08 |
| O=C(c1ccc2snnc2c1)N1CCCCC1 | -3.52 |
| CC(C)C(=O)N1CCC(Cc2ccccc2)CC1 | -8.61 |
| CCc1nn(CC(=O)NCCc2cc(OC)ccc2OC)c(=O)c2cc3sccc3n12 | -3.35 |
| CCN(CC)C(=O)c1ccc(CS(=O)c2ccc(Cl)cc2)o1 (stereo not drawn) | 0.458 |
| Cc1ccc(CN2C(=O)N/C(=C/c3ccc(OCC(=O)Nc4ccccc4)cc3)C2=O)cc1 | 2.49 |
| CC(C)C[C@H](NC(=O)c1cccc(-c2cccc(S(N)(=O)=O)c2)c1)C(=O)NCC#N | -5.2 |
| O=C1c2ccccc2-c2nnc(-c3cccs3)cc21 | -2.47 |
| CCOC(=O)N1CCN(S(=O)(=O)c2ccc3ccccc3c2)CC1 | -12.5 |
| CC(C)c1ccc(/C=C/C(=O)NCCc2ccccc2)cc1 | 2.13 |
| O=C(NCCCc1ccccc1)c1c(O)nc2c(c1O)CCCC2 | -3.93 |
| CC(C)c1nnc(NC(=O)CCCCCN2C(=O)C3C4C=CC(C4)C3C2=O)s1 (stereo not drawn) | 2.46 |
| CCOCCCN(Cc1ccco1)C(=O)c1noc2c1COc1ccc(C)cc1-2 | -4.68 |
| COc1ccc(NS(=O)(=O)c2ccc(NC(=O)c3ccc(OC)c(Br)c3)cc2)cc1 | -0.173 |
| Clc1ccc(C2CC(c3cccs3)n3ncnc3N2)cc1Cl (stereo not drawn) | -12.2 |
| c1ccc2c(c1)c(N1CCCC1)nn1cnnc21 | 4.86 |
| COc1cccc(/C=C2\SC(c3ccccc3)=NC2=O)c1O | 34 |
| Cc1ccc(C2C3=C(Nc4ncnn42)c2ccccc2CCC3)cc1 (stereo not drawn) | -3.4 |
| Cc1cc(-c2ccc(F)cc2)nc2cc(C(=O)Nc3cc(Cl)ccc3O)nn12 | -10.7 |

| Compound | % Inhibition @ 10 uM [%] |
| --- | --- |
| CCOc1c(CNCCNC(=O)c2nonc2N)cccc1OC | -3.49 |
| Cc1cccc(C)c1OCC(O)CN1CCN(Cc2ccc3c(c2)OCO3)CC1 (stereo not drawn) | -2.86 |
| COc1cc(/C=C2\SC(N)=NC2=O)cc(Cl)c1OS(=O)(=O)c1ccccc1 | -4.7 |
| CCCCN(C)C(=O)Cn1ncc2c(C)n(Cc3ccccc3Cl)c(C)c2c1=O | -0.447 |
| CCOCCCNC(=O)C1c2ccccc2Oc2ccccc21 | 1.91 |
| CC1=C(C(=O)NCCCN2CCc3ccccc3C2)C2(CCCCC2)OC1=O | -5.58 |
| O=C(O)C1CC=CCC1C(=O)Nc1ccc2c(c1)OCO2 (stereo not drawn) | 7.12 |
| Cc1cc(/C=C2/NC(=O)N(c3cccc(Cl)c3)C2=O)c(C)n1-c1ccc(S(N)(=O)=O)cc1 | -0.67 |
| CN(CCCNC(=O)c1csc2c1CCCC2)Cc1ccccc1 | -3.21 |
| C=C(C)Cn1c(CN(C)Cc2ccccc2)nc2c1c(=O)n(C)c(=O)n2C | -4.78 |
| COc1ccc(C(NC(=O)CCc2ccccc2)c2ccc3cccnc3c2O)cc1 (stereo not drawn) | 0.279 |
| CC1=C(C(=O)Nc2ccccc2C)C(c2cccc(Br)c2)C2=C(O)CCCC2=N1 (stereo not drawn) | 5.49 |
| O=C1CC(NCC23CC4CC(CC(C4)C2)C3)C(=O)N1c1ccc(Br)cc1 (stereo not drawn) | 6.23 |
| Cc1oc2ccc(O)c(CN3CCCCC3C)c2c1C(=O)NC1CCCC1 (stereo not drawn) | -2.99 |
| O=C(NCCOCCOCCNC(=O)c1cccnc1)c1cccnc1 | -1.33 |
| Cc1cc(NC(=O)Cn2nc(C(F)(F)F)cc2C2CC2)no1 | -3.45 |
| COc1ccc(CNC(=O)c2cc(C3CC3)on2)cc1 | -1.21 |
| Nc1c(C(=O)NCc2ccc3c(c2)OCO3)nnn1Cc1cccc(F)c1 | 1.26 |
| O=C(Cn1cc(C(=O)c2cccs2)c2ccccc21)NC1CCCC1 | 4.84 |
| Cc1nc2ccccc2c2oc(C(=O)N3CC(C)CC(C)C3)cc12 (stereo not drawn) | 4.74 |
| Cc1ccc(C)c(NC(=O)C2CC(=O)N(c3ccc(C(C)C)cc3)C2)c1 (stereo not drawn) | -1.95 |
| O=C(O)CNC(=O)/C(=C\c1cccs1)NC(=O)c1ccccc1 | 4.65 |
| CCOC(=O)c1sc(NC(=O)C2CC2c2ccccc2)c(C(=O)OCC)c1C (stereo not drawn) | -1.1 |
| COc1ccc(C(CC(=O)NCCc2ccccc2)N2Cc3ccccc3C2=O)cc1 (stereo not drawn) | -5.16 |
| c1ccc(-c2ncnc3nc4n(c23)CCC4)cc1 | 4.5 |
| O=[N+]([O-])c1c(NCc2ccccc2)cc(Cl)c2nonc12 | 16.3 |

| Compound | % Inhibition @ 10 uM [%] |
| --- | --- |
| COc1ccc(NC(=O)c2ccc(Cn3nc(C)cc3C)o2)c(OC)c1 | -9.4 |
| CNC(=O)CCn1nc(-c2ccc(C)cc2)c2ccccc2c1=O | -8.79 |
| CC[C@H](C)[C@H](NC(=O)CCc1ccccc1)C(=O)N[C@@H](CCc1ccccc1)C(=O)CO | 3.66 |
| CCOC(=O)N1CCN(C(C)=C2C(=O)c3ccccc3C2=O)CC1 | 2.44 |
| CCn1cc(C2=NOC(C(=O)Nc3cccnc3)C2)c(C)n1 (stereo not drawn) | 3.45 |
| CN(C)CCN(Cc1ccccc1)Cc1ccc(Cl)cc1 | -6 |
| CC1(C)CC(=O)C2=C(C1)OC(N)=C(C#N)C2c1coc2ccccc2c1=O (stereo not drawn) | -3.77 |
| Cc1nc2cc(NC(=O)N(C)c3ccc4ccccc4c3)ccc2o1 | -2.54 |
| CCC1(CC)C(=O)NC(=S)N=C1N | -0.0372 |
| CSc1nc(C)cc(Oc2ccc(OCCOc3ccccc3)nn2)n1 | -3.96 |
| O=c1/c(=C/c2c(O)ccc3ccccc23)sc2n1CCCN=2 | 35.2 |
| COCCNC(=O)c1cc(S(=O)(=O)N2CCOCC2)cn1C | 0.229 |
| CC(=O)c1[nH]c(C)c(C(=O)NCCCc2ccccc2)c1C | -4.05 |
| CC(C)CNc1cnnc2c(Cl)cccc12 | -9.84 |
| C=CCCC1(C)N2CC3(C)CN1CC(C)(C2)C3=O (stereo not drawn) | -4 |
| COC(=O)C1=C(C)NC(=O)NC1c1cccc(Br)c1 (stereo not drawn) | 2.45 |
| CCC(C)c1ccccc1OCC(O)CN1C(=O)NC(C)(C)C1=O (stereo not drawn) | 0.275 |
| O=C1C2C3CCC(C3)C2C(=O)N1c1ccc(Cl)cc1Cl (stereo not drawn) | -1.12 |
| Cc1nc(N2C(=O)C(O)=C(C(=O)c3ccccc3)C2c2ccc(Cl)cc2)sc1C (stereo not drawn) | -6.4 |
| CCOC(=O)c1cc(C#N)c(SC)nc1O | -1.32 |
| CC(=O)Nc1ccc(S(=O)(=O)NCCCCCC(=O)O)cc1 | 2.59 |
| CC(CCc1ccc(O)cc1)N1CCCCCCC1 (stereo not drawn) | -5.11 |
| CCCCNC(=O)c1cc2cc3ccc(C)cc3nc2o1 | -1.54 |
| CCCc1ccc(C(C)NC(=O)c2ccc(C)s2)cc1 (stereo not drawn) | 1.64 |
